In all, about 310,000 compounds went through this assay and about 14,000 (4.5%) showed an effect of 50% or more. The effect is printed as a negative number. Some of the results follow. *1 amine or outer side, *2 acyl side, *3 side chain or, on linkers, in order; H or OH if unused. Where a SMILES comes first, the peptide text is derived from it. Bridges are numbered along the chain shown (N, C = ends). [ ]: non-standard residue; d: D form. ξ: configuration not given here. hSer(Ph(2-I,4-NO2,6-CO)) = O=C([C@H](CCOc1c(I)cc([N+](=O)[O-])cc1C(=O)[*:3])N[*:1])[*:2]; ξD = NC(CC(=O)O)C(=O)O
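Also: peak tail current of the secondary pulse compared with the same well before compound.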

The assay deals with human ether-à-go-go-related gene (hERG) potassium channel (human, UniProt Q12809). In words: primary screen, population patch clamp on CHO cells stably expressing hERG.
Sequence of human ether-à-go-go-related gene (hERG) potassium channel (Q12809 whole entry, looked up): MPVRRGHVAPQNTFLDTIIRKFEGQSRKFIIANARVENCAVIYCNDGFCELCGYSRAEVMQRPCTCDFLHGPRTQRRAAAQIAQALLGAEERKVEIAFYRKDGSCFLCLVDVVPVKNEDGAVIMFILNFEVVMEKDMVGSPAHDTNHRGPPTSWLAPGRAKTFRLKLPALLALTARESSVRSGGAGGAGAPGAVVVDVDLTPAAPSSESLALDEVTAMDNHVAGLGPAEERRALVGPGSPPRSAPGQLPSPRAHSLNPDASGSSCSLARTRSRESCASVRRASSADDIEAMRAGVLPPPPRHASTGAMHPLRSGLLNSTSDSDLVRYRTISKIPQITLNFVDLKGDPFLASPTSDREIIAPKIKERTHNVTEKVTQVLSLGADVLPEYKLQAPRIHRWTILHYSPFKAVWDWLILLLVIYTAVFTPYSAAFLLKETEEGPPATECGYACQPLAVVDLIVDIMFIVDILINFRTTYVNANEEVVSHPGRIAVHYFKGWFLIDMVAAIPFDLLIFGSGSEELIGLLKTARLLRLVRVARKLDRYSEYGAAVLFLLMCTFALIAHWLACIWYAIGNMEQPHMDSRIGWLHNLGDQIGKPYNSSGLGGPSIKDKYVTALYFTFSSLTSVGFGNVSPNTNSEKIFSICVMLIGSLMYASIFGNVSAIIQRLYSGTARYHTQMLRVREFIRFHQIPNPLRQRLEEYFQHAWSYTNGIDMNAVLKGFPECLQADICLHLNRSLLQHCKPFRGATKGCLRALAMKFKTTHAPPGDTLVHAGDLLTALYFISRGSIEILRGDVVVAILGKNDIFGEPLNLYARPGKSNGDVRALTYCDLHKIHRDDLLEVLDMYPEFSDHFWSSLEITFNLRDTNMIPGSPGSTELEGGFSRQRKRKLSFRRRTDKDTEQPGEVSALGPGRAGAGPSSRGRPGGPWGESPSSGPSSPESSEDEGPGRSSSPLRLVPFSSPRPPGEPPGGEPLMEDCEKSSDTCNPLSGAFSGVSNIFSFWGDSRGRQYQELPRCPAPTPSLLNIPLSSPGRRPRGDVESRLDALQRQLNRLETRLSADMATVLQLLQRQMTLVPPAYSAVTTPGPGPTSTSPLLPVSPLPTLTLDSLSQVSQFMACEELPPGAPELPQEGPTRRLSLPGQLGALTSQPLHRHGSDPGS
For `O=C(CCC(=O)c1cccs1)NNC(=O)c1cccc(Cl)c1`, the “hERG current change (%, negative = inhibition) at 10uM” value is listed as -8.43%.

Turning to `O=c1[nH]c(/C(Cl)=C/c2cc(Cl)ccc2O)nc2cc(Cl)ccc12`, the “hERG current change (%, negative = inhibition) at 10uM” value is reported as -6.62%.

`CCCCC(=O)Nc1nc(C)c(C(C)=O)s1`: the “hERG current change (%, negative = inhibition) at 10uM” value is recorded as -0.362%.

Consider `COc1ccc(N/N=C(/C)c2cnnc(-c3ccccc3)n2)cc1`, for which the “hERG current change (%, negative = inhibition) at 10uM” value was -6.65%.

Turning to `Cc1cc(NC(=O)CSc2nc3ccsc3c(=O)n2NC(=O)c2ccccc2)no1`, the “hERG current change (%, negative = inhibition) at 10uM” value is reported as -1.69%.

For the molecule `CC(=O)N1CCN(C(=O)CCNS(=O)(=O)c2ccccc2)CC1`, the “hERG current change (%, negative = inhibition) at 10uM” value is listed as 3.75%.

As for `Cc1ccc(C(=O)N(CC(=O)NC2CCCCC2)c2ccccc2C)s1`, the “hERG current change (%, negative = inhibition) at 10uM” value is reported as -17.6%.

As for `CCC1Oc2ccc(C)cc2N(CC(=O)N(Cc2cccnc2)Cc2ccc(C)o2)C1=O` (stereo not shown), the “hERG current change (%, negative = inhibition) at 10uM” value is on record as -32.8%.

Turning to `O=C(CSCc1cnn(-c2ccccc2)c1-n1cccc1)NCC1CCCO1` (stereo not shown), the “hERG current change (%, negative = inhibition) at 10uM” value is given as 0.25%.

Consider `Cc1cccc(OCCC(=O)Nc2ccc(S(=O)(=O)N3CCCC3)cc2)c1`, for which the “hERG current change (%, negative = inhibition) at 10uM” value is 11.7%.

`CC(=Nc1ccc(O)cc1)c1sc2ccccc2c1O`: the “hERG current change (%, negative = inhibition) at 10uM” value came to 8.57%.

Take `CCOC(=O)c1ccc(NC(=O)N(CC)CC)cc1`: the “hERG current change (%, negative = inhibition) at 10uM” value was determined as 4.46%.

As to `O=P(Nc1cccc(Cl)c1)(Oc1ccccc1)Oc1ccccc1`, the “hERG current change (%, negative = inhibition) at 10uM” value is 19%.

In the case of `CC(C)(C)Nc1c(N)c(=O)oc2ccccc12`, the “hERG current change (%, negative = inhibition) at 10uM” value is listed as 3.05%.

For `COc1ccc(Nc2nc3c(C)cccc3cc2C#N)cc1`, the “hERG current change (%, negative = inhibition) at 10uM” value was determined as 11.6%.

As to `COC(=O)C1=C(C)NC(C)=C(C(=O)OCCN(C)Cc2ccccc2)C1c1cccc([N+](=O)[O-])c1.Cl` (stereo not shown), the “hERG current change (%, negative = inhibition) at 10uM” value was 0.0465%.

With `CCN(CC)CCOCCOC(=O)C1(c2ccccc2)CCCC1.O=C(O)CC(O)(CC(=O)O)C(=O)O`, the “hERG current change (%, negative = inhibition) at 10uM” value is -25.7%.

`O=C(N/N=C/c1ccccc1)c1cc[n+]([O-])cc1`: the “hERG current change (%, negative = inhibition) at 10uM” value is given as 29.2%.

Regarding `COc1ccc(CNC(=O)c2ccccc2NS(C)(=O)=O)cc1`, the “hERG current change (%, negative = inhibition) at 10uM” value is listed as 3.91%.

Take `CC(C)NC(=S)N1CCN(Cc2ccc3c(c2)OCO3)CC1`: the “hERG current change (%, negative = inhibition) at 10uM” value came out at 6.38%.

Turning to `Cc1nn(C)c(C)c1/C=N/NC(=O)CCn1cc([N+](=O)[O-])cn1`, the “hERG current change (%, negative = inhibition) at 10uM” value is given as 10.3%.

For `COc1ccc(OC)c(CNc2c(C=O)c(=O)[nH]c3ccccc23)c1`, the “hERG current change (%, negative = inhibition) at 10uM” value worked out at 23.9%.

Regarding `NC(=O)c1cn(C2CCCCC2)c2ccccc2c1=O`, the “hERG current change (%, negative = inhibition) at 10uM” value was -65.2%.

As to `C#CCN(C)C(C)Cc1ccccc1.Cl` (stereo not shown), the “hERG current change (%, negative = inhibition) at 10uM” value is on record as 6.85%.

For `Cc1ccc2c(N)c(C#N)sc2n1`, the “hERG current change (%, negative = inhibition) at 10uM” value was 14.1%.

On to `Cc1nnc(NC(=O)c2oc3c(ccc4ccccc43)c2C)s1`, for which the “hERG current change (%, negative = inhibition) at 10uM” value amounted to 23.4%.

As for `CCN(CC)S(=O)(=O)c1ccc(C)c(NC(=O)COC(=O)[C@@H]2CCCN2C(=O)c2cccs2)c1`, the “hERG current change (%, negative = inhibition) at 10uM” value was -13.8%.

On to `OCC1(Cc2ccccc2C(F)(F)F)CCN(Cc2cccc3cnccc23)CC1`, for which the “hERG current change (%, negative = inhibition) at 10uM” value is given as -11%.

Regarding `C/C(=N\NC(=O)C1CC1)c1ccc(NC(=O)c2ccc(Br)o2)cc1`, the “hERG current change (%, negative = inhibition) at 10uM” value amounted to 21.6%.

Take `CCOC(=O)Cc1csc(NC(=O)Nc2ccc(F)cc2)n1`: the “hERG current change (%, negative = inhibition) at 10uM” value came out at 16.1%.

Take `CCC1(c2ccccc2)NC(=O)N(CC(=O)Nc2cc(S(=O)(=O)N3CCOCC3)ccc2OC(C)C)C1=O` (stereo not shown): the “hERG current change (%, negative = inhibition) at 10uM” value is recorded as -55.7%.

Regarding `Cn1c(-c2c(N)n(-c3ccccc3)c3nc4ccccc4nc23)nc2ccccc21`, the “hERG current change (%, negative = inhibition) at 10uM” value is reported as -11%.

For the molecule `CCN(c1ccc(Cl)cc1)S(=O)(=O)c1nnc(NC(=O)C(C)C)s1`, the “hERG current change (%, negative = inhibition) at 10uM” value is 10.4%.

Regarding `Cc1cc(Cl)ccc1C(=O)C1CCCN(C(=O)c2cccc(N3CCCC3=O)c2)C1` (stereo not shown), the “hERG current change (%, negative = inhibition) at 10uM” value was -20.6%.

Regarding `COc1ccccc1NS(=O)(=O)N(C)C`, the “hERG current change (%, negative = inhibition) at 10uM” value worked out at 11.3%.

As to `CCNC(=S)Nc1cccc(F)c1C`, the “hERG current change (%, negative = inhibition) at 10uM” value stood at 10.4%.

For `CS(=O)(=O)N(Cc1ccc(Cl)cc1)c1ccc(C(=O)NCCC2=CCCCC2)cc1`, the “hERG current change (%, negative = inhibition) at 10uM” value worked out at 0.523%.

Turning to `NC(=O)C(CC(=O)O)NC(=O)[C@@H]1CCOc2c(I)cc([N+](=O)[O-])cc2C(=O)N[C@@H](CO)C(=O)N[C@@H](Cc2ccc(O)cc2)C(=O)N1` (stereo partly shown) (SY[hSer(Ph(2-I,4-NO2,6-CO))][ξD]-NH2; lactam N-3), the “hERG current change (%, negative = inhibition) at 10uM” value is -4.16%.

Regarding `CCN(CC)S(=O)(=O)c1ccc2c(c1)NC(=O)C1CCCN21` (stereo not shown), the “hERG current change (%, negative = inhibition) at 10uM” value was 1.95%.

With `CC(=O)Nc1nc(-c2ccc3c(c2)CCO3)cs1`, the “hERG current change (%, negative = inhibition) at 10uM” value is -0.22%.

In the case of `Cc1ccc(S(C)(=O)=NC(=O)NC(=O)c2c(Cl)cccc2Cl)cc1` (stereo not shown), the “hERG current change (%, negative = inhibition) at 10uM” value is listed as -5.16%.

Turning to `COC(=O)C1=C(C)NC(C)=C(C(=O)OC)C1c1ccc(NC(C)=O)cc1`, the “hERG current change (%, negative = inhibition) at 10uM” value is recorded as 14.8%.

Consider `CC(C)(C)c1ccc(OC(=O)N2CCCCC2)cc1`, for which the “hERG current change (%, negative = inhibition) at 10uM” value was 19.8%.

In the case of `Cc1c(NS(=O)(=O)c2ccc([N+](=O)[O-])cc2)c(=O)n(-c2ccccc2)n1C`, the “hERG current change (%, negative = inhibition) at 10uM” value is given as 12.2%.

With `Cc1cc2cc3c(cc2nc1SCC(=O)Nc1c(C)cccc1C)CCC3`, the “hERG current change (%, negative = inhibition) at 10uM” value is listed as -9.05%.

Consider `Cc1ccc(SCC(=O)c2sc(-c3ccccc3)nc2C)cc1`, for which the “hERG current change (%, negative = inhibition) at 10uM” value is 1.92%.

For `CCOc1ccc(C2C=C(c3ccc(C)cc3)Nc3nnnn32)cc1` (stereo not shown), the “hERG current change (%, negative = inhibition) at 10uM” value is on record as -14.4%.

Take `O=C(c1ccc2ncsc2c1)N1CCN(c2ccccc2Cl)CC1`: the “hERG current change (%, negative = inhibition) at 10uM” value is given as -19.4%.

On to `CCOc1ccccc1N1CCN(C(=O)CNC(=O)c2sc3ccccc3c2Cl)CC1`, for which the “hERG current change (%, negative = inhibition) at 10uM” value is listed as 17.4%.

On to `O=C(CN1C(=O)NC2(CCc3ccccc32)C1=O)NCc1ccccc1Cl` (stereo not shown), for which the “hERG current change (%, negative = inhibition) at 10uM” value is recorded as 7.01%.

On to `O=C(NC1CCN(Cc2ccccc2)CC1)C1CCN(S(=O)(=O)c2cccc3nsnc23)CC1`, for which the “hERG current change (%, negative = inhibition) at 10uM” value is listed as -23.7%.

On to `O=C(Cc1ccc(Br)cc1)Nc1ncc([N+](=O)[O-])s1`, for which the “hERG current change (%, negative = inhibition) at 10uM” value turned out to be 11.7%.

With `O=C(Oc1ccc(-c2nnco2)cc1)C1CCN(C(=O)c2ccc(F)cc2)CC1`, the “hERG current change (%, negative = inhibition) at 10uM” value was -8.94%.

In the case of `Cc1ccc2oc(=O)n(Cc3ccc(F)cc3)c2c1`, the “hERG current change (%, negative = inhibition) at 10uM” value turned out to be 1.59%.

For `Cn1nc(/C=C/c2ccccc2)ccc1=O`, the “hERG current change (%, negative = inhibition) at 10uM” value worked out at 6.6%.

Values taken from article PMC4336329 (PLoS ONE, 2015).
